Measurements reported in the supplement of paper PMC4967469.
IC50 is the fitted dose that halves viability relative to control wells, and lower means more sensitive; where the fit passes the top or lowest dose, that dose stands as a limit. AUC, from the same fit, is the share of area under the viability curve across the 256-fold dose range; the more sensitive the line, the further below 1. For some of these results: A top dose marked as inferred was derived from the fitted curves, not read from the paper. For some of these results: Where an entry number is given, a second screen of the drug exists; the two often differ.

Columns and labels:
Experiment in all cases: Viability of human cancer cell lines after 72 h of drug (GDSC screen)
[1] = compound: CC(C)C[C@@H](C=O)NC(=O)[C@H](CC(C)C)NC(=O)[C@H](CC(C)C)NC(=O)OCc1ccccc1 [MG-132]; details: top dose 1 µM
Protocol: (§1)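 Human cancer cell lines in 384-well plates, medium with 10% serum, drug for 72 h over a 256-fold dose range (nine 2-fold or five 4-fold steps up to the top dose). Adherent lines were fixed and stained with the nucleic acid dye Syto60, suspension lines read with resazurin; signal relative to control wells, capped at 0 and 100%. One two-parameter sigmoid per drug and line, fitted in a mixed model over all curves with the slope shared within a line.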

[2] = compound: CC(C)[C@H](C(=O)Nc1ccc(C(=O)NO)cc1)c1ccccc1 [AR-42]; details: top dose 5.12 µM; top dose inferred
Protocol: as §1

[3] = compound: C[C@]12O[C@H](C[C@]1(O)CO)n1c3ccccc3c3c4c(c5c6ccccc6n2c5c31)CNC4=O [CEP-701]; details: top dose 2 µM; top dose inferred
Protocol: as §1

[4] = compound: Cc1ccc(Nc2nccc(N(C)c3ccc4c(C)n(C)nc4c3)n2)cc1S(N)(=O)=O [Pazopanib]; details: top dose 8 µM
Protocol: as §1

[5] = compound: Cn1cc(C2=C(c3ccc(Cl)cc3Cl)C(=O)NC2=O)c2ccccc21 [SB 216763]; details: top dose 10 µM; top dose inferred
Protocol: as §1

[6] = compound: CS(=O)(=O)N1CCN(Cc2cc3nc(-c4cccc5[nH]ncc45)nc(N4CCOCC4)c3s2)CC1 [GDC0941]; details: top dose 4 µM; screen: GDSC drug entry 1527; top dose inferred
Protocol: as §1

“AMO-1 (haematopoietic neoplasm, suspension)” was tested, and the AUC [1] was 0.641, the IC50 [1] was 144 nM and the AUC [2] was 0.403. The IC50 [2] was 181 nM, the AUC [3] was 0.52 and the IC50 [3] was 141 nM. For the same cell line, the AUC [4] was 0.95, the IC50 [4] was > 8000 nM and the AUC [5] was 0.991. The IC50 [5] was > 10000 nM.
BB30-HNC (head and neck, adherent) showed an AUC [1] of 0.742, an IC50 [1] of 301 nM and an AUC [2] of 0.677. It also gave an IC50 [2] of 987 nM, an AUC [3] of 0.663 and an IC50 [3] of 350 nM. For the same cell line, the AUC [4] was 0.905, the IC50 [4] was > 8000 nM and the AUC [5] was 0.982. For the same cell line, the IC50 [5] was > 10000 nM.
With CL-11 (large intestine, adherent) the AUC [1] was 0.92, the IC50 [1] was > 1000 nM and the AUC [2] was 0.892. The IC50 [2] was > 5120 nM, the AUC [3] was 0.834 and the IC50 [3] was 1540 nM. The AUC [4] was 0.983, the IC50 [4] was > 8000 nM and the AUC [5] was 0.957. For the same cell line, the IC50 [5] was > 10000 nM.
For CP66-MEL (melanoma, adherent), the AUC [1] was 0.501, the IC50 [1] was 62.7 nM and the AUC [2] was 0.784. The IC50 [2] was 2510 nM, the AUC [6] was 0.812 and the IC50 [6] was 2520 nM. For the same cell line, the AUC [3] was 0.904, the IC50 [3] was > 2000 nM and the AUC [4] was 0.918. The IC50 [4] was > 8000 nM.
With Calu-6 (lung adenocarcinoma, adherent) the AUC [1] was 0.819, the IC50 [1] was 678 nM and the AUC [2] was 0.5. The IC50 [2] was 319 nM, the AUC [3] was 0.811 and the IC50 [3] was 1260 nM. For the same cell line, the AUC [4] was 0.982, the IC50 [4] was > 8000 nM and the AUC [5] was 0.924. For the same cell line, the IC50 [5] was > 10000 nM.
D-247MG (glioma, adherent) showed an AUC [1] of 0.471, an IC50 [1] of 50.6 nM and an AUC [2] of 0.582. For the same cell line, the IC50 [2] was 582 nM, the AUC [6] was 0.808 and the IC50 [6] was 3070 nM. The AUC [3] was 0.678, the IC50 [3] was 475 nM and the AUC [5] was 0.979. For the same cell line, the IC50 [5] was > 10000 nM.
With D-336MG (glioma, adherent) the AUC [1] was 0.778, the IC50 [1] was 526 nM and the AUC [2] was 0.595. The IC50 [2] was 630 nM, the AUC [6] was 0.665 and the IC50 [6] was 825 nM. The AUC [3] was 0.533, the IC50 [3] was 158 nM and the AUC [5] was 0.931. The IC50 [5] was > 10000 nM.
With DEL (lymphoid neoplasm, suspension) the AUC [1] was 0.98, the IC50 [1] was > 1000 nM and the AUC [2] was 0.455. For the same cell line, the IC50 [2] was 248 nM, the AUC [6] was 0.937 and the IC50 [6] was > 4000 nM. The AUC [4] was 0.968, the IC50 [4] was > 8000 nM and the AUC [5] was 0.976. For the same cell line, the IC50 [5] was > 10000 nM.
Work on EJM (lymphoid neoplasm, semi-adherent) yielded an AUC [1] of 0.77, an IC50 [1] of 322 nM and an AUC [2] of 0.364. It also gave an IC50 [2] of 144 nM, an AUC [3] of 0.612 and an IC50 [3] of 241 nM. The AUC [4] was 0.988, the IC50 [4] was > 8000 nM and the AUC [5] was 0.992. For the same cell line, the IC50 [5] was > 10000 nM.
In the case of EKVX (lung adenocarcinoma, adherent), the AUC [1] is reported as 0.834, the IC50 [1] is reported as > 1000 nM and the AUC [2] is reported as 0.805. For the same cell line, the IC50 [2] was > 5120 nM, the AUC [6] was 0.713 and the IC50 [6] was 2040 nM. The AUC [3] was 0.664, the AUC [4] was 0.904 and the IC50 [4] was > 8000 nM.
EVSA-T (breast, adherent) was tested, and the AUC [1] was 0.725, the IC50 [1] was 243 nM and the AUC [2] was 0.408. It also gave an IC50 [2] of 186 nM, an AUC [6] of 0.573 and an IC50 [6] of 384 nM. For the same cell line, the AUC [3] was 0.743, the IC50 [3] was 547 nM and the AUC [4] was 0.987. The IC50 [4] was > 8000 nM.
For EW-22 (Ewing sarcoma, adherent), the AUC [1] was 0.984, the IC50 [1] was > 1000 nM and the AUC [6] was 0.826. It also gave an IC50 [6] of 2300 nM, an AUC [3] of 0.771 and an IC50 [3] of 737 nM. For the same cell line, the AUC [5] was 0.984 and the IC50 [5] was > 10000 nM.
In the case of GAK (melanoma, adherent), the AUC [1] is reported as 0.709, the IC50 [1] is reported as 235 nM and the AUC [2] is reported as 0.623. For the same cell line, the IC50 [2] was 686 nM, the AUC [5] was 0.985 and the IC50 [5] was > 10000 nM.
GCIY (stomach, adherent) was tested, and the AUC [1] was 0.838, the IC50 [1] was 805 nM and the AUC [2] was 0.42. For the same cell line, the IC50 [2] was 188 nM, the AUC [3] was 0.886 and the IC50 [3] was > 2000 nM. The AUC [4] was 0.929, the IC50 [4] was > 8000 nM and the AUC [5] was 0.979. The IC50 [5] was > 10000 nM.
Cell Line “GRANTA-519 (B-cell lymphoma, suspension)” has an AUC [1] of 0.846, an IC50 [1] of 621 nM and an AUC [2] of 0.705. The IC50 [2] was 1130 nM, the AUC [3] was 0.565 and the IC50 [3] was 185 nM. For the same cell line, the AUC [4] was 0.977, the IC50 [4] was > 8000 nM and the AUC [5] was 0.991. The IC50 [5] was > 10000 nM.
“HEL (acute myeloid leukaemia, semi-adherent)” showed an AUC [1] of 0.682, an IC50 [1] of 183 nM and an AUC [2] of 0.249. For the same cell line, the IC50 [2] was 71 nM, the AUC [6] was 0.973 and the IC50 [6] was > 4000 nM. For the same cell line, the AUC [4] was 0.989 and the IC50 [4] was > 8000 nM.
HOP-62 (lung adenocarcinoma, adherent) was tested, and the AUC [1] was 0.655, the IC50 [1] was 168 nM and the AUC [2] was 0.528. The IC50 [2] was 381 nM, the AUC [6] was 0.844 and the IC50 [6] was 2860 nM. The AUC [4] was 0.953 and the IC50 [4] was > 8000 nM.
For IM-9 (myeloma, suspension), the AUC [1] was 0.974, the IC50 [1] was > 1000 nM and the AUC [6] was 0.982. For the same cell line, the IC50 [6] was > 4000 nM, the AUC [3] was 0.787 and the IC50 [3] was 745 nM. For the same cell line, the AUC [4] was 0.983, the IC50 [4] was > 8000 nM and the AUC [5] was 0.985. The IC50 [5] was > 10000 nM.
Work on “JJN-3 (haematopoietic neoplasm, suspension)” yielded an AUC [1] of 0.651, an IC50 [1] of 150 nM and an AUC [2] of 0.377. For the same cell line, the IC50 [2] was 157 nM, the AUC [3] was 0.5 and the IC50 [3] was 125 nM. The AUC [4] was 0.991, the IC50 [4] was > 8000 nM and the AUC [5] was 0.991. For the same cell line, the IC50 [5] was > 10000 nM.
In the case of “KASUMI-1 (acute myeloid leukaemia, suspension)”, the AUC [1] is reported as 0.967, the IC50 [1] is reported as > 1000 nM and the AUC [6] is reported as 0.386. For the same cell line, the IC50 [6] was 121 nM, the AUC [3] was 0.328 and the IC50 [3] was 41.4 nM. The AUC [5] was 0.967 and the IC50 [5] was > 10000 nM.
In the case of KMS-12-BM (myeloma, suspension), the AUC [1] is reported as 0.806, the IC50 [1] is reported as 407 nM and the AUC [2] is reported as 0.275. For the same cell line, the IC50 [2] was 84.1 nM, the AUC [3] was 0.253 and the IC50 [3] was 28.7 nM. The AUC [4] was 0.982, the IC50 [4] was > 8000 nM and the AUC [5] was 0.981. The IC50 [5] was > 10000 nM.
For KURAMOCHI (ovary, adherent), the AUC [1] was 0.856, the IC50 [1] was > 1000 nM and the AUC [2] was 0.607. For the same cell line, the IC50 [2] was 659 nM, the AUC [3] was 0.889 and the IC50 [3] was > 2000 nM. The AUC [4] was 0.924, the IC50 [4] was > 8000 nM and the AUC [5] was 0.982. The IC50 [5] was > 10000 nM.
Work on L-363 (myeloma, suspension) yielded an AUC [1] of 0.707, an IC50 [1] of 218 nM and an AUC [2] of 0.449. For the same cell line, the IC50 [2] was 237 nM, the AUC [3] was 0.464 and the IC50 [3] was 101 nM. The AUC [4] was 0.973, the IC50 [4] was > 8000 nM and the AUC [5] was 0.988. For the same cell line, the IC50 [5] was > 10000 nM.
For “LB647-SCLC (small cell lung carcinoma, semi-adherent)”, the AUC [1] was 0.872, the IC50 [1] was > 1000 nM and the AUC [2] was 0.923. The IC50 [2] was > 5120 nM, the AUC [3] was 0.668 and the IC50 [3] was 391 nM. For the same cell line, the AUC [4] was 0.974, the IC50 [4] was > 8000 nM and the AUC [5] was 0.985. For the same cell line, the IC50 [5] was > 10000 nM.
LC-2-ad (lung adenocarcinoma, adherent) gave an AUC [1] of 0.872, an IC50 [1] of 991 nM and an AUC [2] of 0.421. The IC50 [2] was 193 nM, the AUC [6] was 0.684 and the IC50 [6] was 831 nM. It also gave an AUC [4] of 0.862 and an IC50 [4] of 7140 nM.
